# Measured values as given in PMC12820563.
# This is one part of the list. The list includes weakly bound sequences.
# Biological target: T1, MBP-FoxP3dN (UniProt Q99JB6)
# T1 sequence: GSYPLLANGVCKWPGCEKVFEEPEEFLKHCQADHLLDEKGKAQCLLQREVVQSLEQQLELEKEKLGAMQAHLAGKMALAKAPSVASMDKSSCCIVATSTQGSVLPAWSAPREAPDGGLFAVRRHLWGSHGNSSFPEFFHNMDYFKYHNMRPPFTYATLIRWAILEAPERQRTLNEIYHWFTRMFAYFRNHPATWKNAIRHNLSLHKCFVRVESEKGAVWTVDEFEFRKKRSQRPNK
# Assay: PD-seq (MBP pull-down with sequencing)
# Conditions: 20 mM Tris-HCl pH 7.5, 100 mM NaCl, 1.5 mM MgCl2, 0.4 uM protein, 0.1 uM dsDNA library, 30 min, room temperature, amylose pull-down; high values mean tight binding; double strand, one strand shown
row,Sequence,binding signal (RPM ratio (pull-down/input))
1,GATGATTGTTCTCCCAGCTGATGAATTACTTGCTTCGAGTAAACAAATTTTCCTAATCTTTCTGTTCAAGCGCCATCTAC,0.39
2,GATGATTGTTCTCCCAGCTGATGAATTAAGGACGTCGAGTAAACAAATTTTCCTAATCTTTCTGTTCAAGCGCCATCTAC,0.23
3,GATGATTGTTCTCCCAGCTGATGAATTCTTGACCTCGAGTAAACAAATTTTCCTAATCTTTCTGTTCAAGCGCCATCTAC,0.216
4,GATGATTGTTCTCCCAGCTGATGAATTACTCTCCTCGAGTAAACAAATTTTCCTAATCTTTCTGTTCAAGCGCCATCTAC,0.265
5,GATGATTGTTCTCCCAGCTGATGAATTTGCCAAATCGAGTAAACAAATTTTCCTAATCTTTCTGTTCAAGCGCCATCTAC,0.45
6,GATGATTGTTCTCCCAGCTGATGAATTCAGCTGCTCGAGTAAACAAATTTTCCTAATCTTTCTGTTCAAGCGCCATCTAC,0.48
7,GATGATTGTTCTCCCAGCTGATGAATTGTCAATTTCGAGTAAACAAATTTTCCTAATCTTTCTGTTCAAGCGCCATCTAC,0.48
8,GATGATTGTTCTCCCAGCTGATGAATTTGGTGCCTCGAGTAAACAAATTTTCCTAATCTTTCTGTTCAAGCGCCATCTAC,1.91
9,GATGATTGTTCTCCCAGCTGATGAATTAGCGGAGTCGAGTAAACAAATTTTCCTAATCTTTCTGTTCAAGCGCCATCTAC,0.232
10,GATGATTGTTCTCCCAGCTGATGAATTAGCGGGTTCGAGTAAACAAATTTTCCTAATCTTTCTGTTCAAGCGCCATCTAC,0.418
11,GATGATTGTTCTCCCAGCTGATGAATTGAATCTTTCGAGTAAACAAATTTTCCTAATCTTTCTGTTCAAGCGCCATCTAC,0.345
12,GATGATTGTTCTCCCAGCTGATGAATTAGAAGAATCGAGTAAACAAATTTTCCTAATCTTTCTGTTCAAGCGCCATCTAC,0.187
13,GATGATTGTTCTCCCAGCTGATGAATTAGATCTGTCGAGTAAACAAATTTTCCTAATCTTTCTGTTCAAGCGCCATCTAC,0.336
14,GATGATTGTTCTCCCAGCTGATGAATTACGACTGTCGAGTAAACAAATTTTCCTAATCTTTCTGTTCAAGCGCCATCTAC,0.86
15,GATGATTGTTCTCCCAGCTGATGAATTCCTGTATTCGAGTAAACAAATTTTCCTAATCTTTCTGTTCAAGCGCCATCTAC,1.12
16,GATGATTGTTCTCCCAGCTGATGAATTTGTCGTTTCGAGTAAACAAATTTTCCTAATCTTTCTGTTCAAGCGCCATCTAC,5.18
17,GATGATTGTTCTCCCAGCTGATGAATTCTGATGGTCGAGTAAACAAATTTTCCTAATCTTTCTGTTCAAGCGCCATCTAC,0.848
18,GATGATTGTTCTCCCAGCTGATGAATTGAGAAATTCGAGTAAACAAATTTTCCTAATCTTTCTGTTCAAGCGCCATCTAC,0.462
19,GATGATTGTTCTCCCAGCTGATGAATTTTGTTGCTCGAGTAAACAAATTTTCCTAATCTTTCTGTTCAAGCGCCATCTAC,5.63
20,GATGATTGTTCTCCCAGCTGATGAATTCGGATGCTCGAGTAAACAAATTTTCCTAATCTTTCTGTTCAAGCGCCATCTAC,0.955

row,Sequence,binding signal (RPM ratio (pull-down/input))
1,GATGATTGTTCTCCCAGCTGATGAATTGGAAATTTCGAGTAAACAAATTTTCCTAATCTTTCTGTTCAAGCGCCATCTAC,0.27
2,GATGATTGTTCTCCCAGCTGATGAATTGAGGATGTCGAGTAAACAAATTTTCCTAATCTTTCTGTTCAAGCGCCATCTAC,0.353
3,GATGATTGTTCTCCCAGCTGATGAATTGGTACAATCGAGTAAACAAATTTTCCTAATCTTTCTGTTCAAGCGCCATCTAC,0.781
4,GATGATTGTTCTCCCAGCTGATGAATTTCCTGCCTCGAGTAAACAAATTTTCCTAATCTTTCTGTTCAAGCGCCATCTAC,0.341
5,GATGATTGTTCTCCCAGCTGATGAATTATTGTGATCGAGTAAACAAATTTTCCTAATCTTTCTGTTCAAGCGCCATCTAC,2.16
6,GATGATTGTTCTCCCAGCTGATGAATTCGAGTGGTCGAGTAAACAAATTTTCCTAATCTTTCTGTTCAAGCGCCATCTAC,0.496
7,GATGATTGTTCTCCCAGCTGATGAATTCCGGCACTCGAGTAAACAAATTTTCCTAATCTTTCTGTTCAAGCGCCATCTAC,0.388
8,GATGATTGTTCTCCCAGCTGATGAATTTTGTATGTCGAGTAAACAAATTTTCCTAATCTTTCTGTTCAAGCGCCATCTAC,6.01
9,GATGATTGTTCTCCCAGCTGATGAATTACACGAGTCGAGTAAACAAATTTTCCTAATCTTTCTGTTCAAGCGCCATCTAC,0.36
10,GATGATTGTTCTCCCAGCTGATGAATTATTTGGATCGAGTAAACAAATTTTCCTAATCTTTCTGTTCAAGCGCCATCTAC,0.974
11,GATGATTGTTCTCCCAGCTGATGAATTCTTGGGCTCGAGTAAACAAATTTTCCTAATCTTTCTGTTCAAGCGCCATCTAC,0.211
12,GATGATTGTTCTCCCAGCTGATGAATTTATGCGGTCGAGTAAACAAATTTTCCTAATCTTTCTGTTCAAGCGCCATCTAC,1.09
13,GATGATTGTTCTCCCAGCTGATGAATTGCCAGGCTCGAGTAAACAAATTTTCCTAATCTTTCTGTTCAAGCGCCATCTAC,0.568
14,GATGATTGTTCTCCCAGCTGATGAATTCGCCGCTTCGAGTAAACAAATTTTCCTAATCTTTCTGTTCAAGCGCCATCTAC,0.535
15,GATGATTGTTCTCCCAGCTGATGAATTCTGCCTTTCGAGTAAACAAATTTTCCTAATCTTTCTGTTCAAGCGCCATCTAC,5.08
16,GATGATTGTTCTCCCAGCTGATGAATTGTAGGAATCGAGTAAACAAATTTTCCTAATCTTTCTGTTCAAGCGCCATCTAC,0.255
17,GATGATTGTTCTCCCAGCTGATGAATTTGGTTCATCGAGTAAACAAATTTTCCTAATCTTTCTGTTCAAGCGCCATCTAC,0.912
18,GATGATTGTTCTCCCAGCTGATGAATTCCACGGATCGAGTAAACAAATTTTCCTAATCTTTCTGTTCAAGCGCCATCTAC,0.186
19,GATGATTGTTCTCCCAGCTGATGAATTGGGCCATTCGAGTAAACAAATTTTCCTAATCTTTCTGTTCAAGCGCCATCTAC,3.14
20,GATGATTGTTCTCCCAGCTGATGAATTTCTTGAATCGAGTAAACAAATTTTCCTAATCTTTCTGTTCAAGCGCCATCTAC,0.2
